Source: PubChem BioAssay AID485344 (National Center for Advancing Translational Sciences (NCATS), 2010)
The whole screen tested about 340,000 compounds, of which about 6,900 (2%) were called active. Cut-off read from the data, not from the text of the source: active = inhibition above about 30%; inactive = below that, where a call was filed. The list shows a part of the results, in another mix than the full data. The source gives no active or inactive call for entries shown without one.

What follows are molecules tested against D(2) dopamine receptor (Homo sapiens) (UniProt P14416) (assay: HTS Assay for Allosteric Antagonists of the Human D2 Dopamine Receptor: Primary Screen for Antagonists). Settings: HEK293 TREx D2 cells, calcium flux, dopamine EC80; at 10 µM; stronger effect = higher value.
UniProt P14416, sequence (P14416 whole entry, looked up): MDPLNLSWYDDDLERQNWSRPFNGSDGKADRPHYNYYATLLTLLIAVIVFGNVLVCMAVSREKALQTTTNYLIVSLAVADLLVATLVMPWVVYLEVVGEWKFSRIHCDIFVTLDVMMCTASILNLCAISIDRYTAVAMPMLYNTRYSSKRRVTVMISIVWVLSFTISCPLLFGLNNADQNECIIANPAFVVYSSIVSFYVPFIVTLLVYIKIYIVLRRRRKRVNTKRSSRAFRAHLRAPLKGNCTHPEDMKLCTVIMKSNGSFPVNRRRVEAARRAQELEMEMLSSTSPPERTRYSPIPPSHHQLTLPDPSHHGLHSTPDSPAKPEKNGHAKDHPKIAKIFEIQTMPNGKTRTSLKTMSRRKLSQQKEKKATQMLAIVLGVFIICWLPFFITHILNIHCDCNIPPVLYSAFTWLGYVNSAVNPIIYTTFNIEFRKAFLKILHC
How it was run: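 Calcium flux kinetic readout in an inducible HEK293 TREx D2 line plated overnight at 30 C. After 180 s compound exposure, an EC80 dopamine challenge follows with another 180 s kinetic read to detect antagonism.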
Note: 0% is about no effect.

Row | SMILES | inhibition
1 | Cc1ccc(S(=O)(=O)c2cnc(SCC(=O)Nc3cccc(Cl)c3)nc2N)cc1C | 4.76%
2 | CCN(CC)C(=O)Cn1cc(SCC(=O)Nc2cccc(F)c2)c2ccccc21 | -2.64%
3 | COc1ccc(C(CC(=O)O)NC(=O)c2cc3ccccc3oc2=O)cc1OC (centres undefined) | 6.36%
4 | Cc1ncc(CO)c2c1Oc1nc(-c3ccc(Cl)cc3)nc(SCC(=O)N3CCCCC3)c1C2 | 19.5%
5 | OCCCN1CCN(CCOc2ccccc2-c2ccccc2)CC1 | active: 66.6%
6 | CCc1ccc(C2(O)CC(C(F)(F)F)=NN2C(=O)Cc2ccc([N+](=O)[O-])cc2)cc1 (centres undefined) | active: 32.8%
7 | COc1cccc(CNC(=O)c2cc(-c3ccc(Cl)s3)nc3ccccc23)c1 | 19.5%
8 | COc1ccc(NC(=O)c2nc(S(C)(=O)=O)ncc2N(Cc2ccc(C)cc2)Cc2ccco2)cc1Cl | 7.05%
9 | COc1ccc(Cl)cc1NC(=O)c1cc(-c2ccc3c(c2)OCO3)on1 | 9.65%
10 | CCCCc1cc(=O)oc2cc(C)c3c(C(C)(C)C)coc3c12 | -12.9%
11 | COc1ccc(C)cc1NC(=O)N1CCN(S(=O)(=O)c2ccc3c(ccn3C)c2)CC1 | -6.19%
12 | O=C(NCc1ccc(Cl)cc1)C1CCN(c2nn3cc(-c4ccc(F)cc4)nc3s2)CC1 | 3.05%
13 | CCn1c2c(c(=O)n3ncc(C(=O)Nc4cc(Cl)ccc4OC)c13)CN(Cc1ccc(OC)cc1)CC2 | -1.31%
14 | Cc1c(C(=O)OCCOc2ccccc2)[nH]c2c1C(=O)CC(c1ccc(C(C)(C)C)cc1)C2 (centres undefined) | 0.889%
15 | CCCNC(=O)CCC(=O)N1Cc2cccc(OC)c2Oc2ncccc21 | 6.32%
16 | CCOC(=O)C1CCN(C(=O)CCc2nc3ccccc3[nH]2)CC1 | active: 60.6%
17 | CC1CN(C(=O)NCc2ccccc2)c2cc(Cl)ccc2O1 (centres undefined) | 8.28%
18 | Cc1cccc(NC(=O)CSc2nc3ccc(NC(=O)COc4ccccc4C)cc3s2)c1 | 2.53%
19 | Cc1ccc(NC(=O)CSc2nc(-c3ccco3)cc(C(F)(F)F)n2)c(C)c1 | -12.2%
20 | COc1cccc2cc(C(=O)Nc3ccc(CC(=O)O)cc3)c(=O)oc12 | 20.6%
21 | COc1ccc(CN2CCC(C(=O)c3ccc(Cl)cc3)CC2)cc1 | active: 35.3%
22 | CCCCN1CC(c2nc3ccccc3n2CCCCOc2cc(C)cc(C)c2)CC1=O (centres undefined) | -3.37%
23 | Cc1ccn2c(NC3CCCCC3)c(C)nc2c1 | active: 34.6%
24 | CCOc1ccc(S(=O)(=O)N2Cc3ccccc3CC2C(=O)Nc2ccc(NC(C)=O)cc2)cc1 (centres undefined) | -9.16%

Row | SMILES | inhibition
25 | COc1ccc(-c2cc(C(=O)Nc3sc4c(c3C(N)=O)CCCC4)no2)cc1 | 14.2%
26 | COCCCNC(=O)CN1C(=O)c2cccnc2Sc2ccccc21 | 2.26%
27 | CC(=O)c1cccc(NC(=O)CN2C(=O)CCc3cc(S(=O)(=O)N4CCCCC4)ccc32)c1 | -12.5%
28 | COc1ccccc1N1CCN(C(=O)c2cc(-c3ccc(C)c(F)c3)on2)CC1 | 13.6%
29 | COc1cc(CNc2ccc3[nH]c(=O)[nH]c3c2)ccc1OCc1ccc(F)cc1Cl | 5.18%
30 | COc1ccc(CN2CCc3c(c(=O)n4ncc(C(=O)N5CCN(c6ccccc6F)CC5)c4n3C)C2)cc1 | 13.4%
31 | O=C(Cc1csc(Nc2nc(=S)[nH]c3ccccc23)n1)NCCCN1CCN(c2cccc(Cl)c2)CC1 | active: 69.4%
32 | COC(=O)c1ccc2c(=O)n3nc(Nc4ccc(F)cc4F)sc3nc2c1 | -3.09%
33 | COc1ccc(CNC(=O)c2ccc3c(O)c(S(=O)(=O)c4ccccc4)c(=O)[nH]c3c2)cc1 | 3.98%
34 | CS(=O)(=O)N(Cc1ccccc1)c1ccc(C(=O)Nc2cccc(Cl)c2)cc1 | 4.36%
35 | Cc1cccc(N2CCN(C(=O)c3nn(C)c4c3CS(=O)(=O)c3ccccc3-4)CC2)c1C | -9.26%
36 | COc1ccc(Cn2ccc3nc(C)c(C(=O)N4CCN(c5cccc(OC)c5)CC4)cc3c2=O)cc1 | -14.6%
37 | CCCCC1CCC(C(=O)N2CC(=O)Nc3ccc(C)cc3C2c2ccc(F)cc2)CC1 (centres undefined) | 1.6%
38 | COc1ccc(NC(=O)c2c(NC(=O)C(F)(F)F)sc3c2CCCCC3)cc1 | -23.3%
39 | CCN(C(=O)CCc1nc(-c2ccc(C)cc2)no1)c1cccc(C(F)(F)F)c1 | 4.32%
40 | COc1ccccc1N1CCN(CCCCOc2ccc(C)cc2C)CC1 | active: 81.7%
41 | Cc1ccc(CN2CCSc3ccc(C(=O)NC4CCN(Cc5ccccc5)CC4)cc32)cc1 | active: 73.9%
42 | CCOC(=O)c1c(C)[nH]c(CCC(=O)Nc2ccccc2C(F)(F)F)c1C | -1.81%
43 | O=C(CCS(=O)(=O)c1cc2c(cc1Cl)NC(=O)CO2)NCCc1ccccc1 | 8.5%
44 | COc1ccc(C(=O)Nc2ccc(S(=O)(=O)Nc3cc(C)nc(C)n3)cc2)cc1 | 0.609%
45 | CCCS(=O)(=O)N1CC(=O)N(c2cccc(F)c2)C(C)(C(=O)NC2CCCCCC2)C1 (centres undefined) | 1.08%
46 | O=C(CSc1n[nH]c(-c2ccccc2Cl)n1)NCCc1ccccc1 | -7.43%
47 | COc1ccc(N2CCN(C(=O)c3cccn3-c3nnc(N4CCCC4)s3)CC2)cc1 | 5.75%
48 | CCc1nn(CCCC(=O)NCc2ccc(OC(C)C)cc2)c(=O)c2cc3occc3n12 | 4.98%

Row | SMILES | inhibition
49 | CCOc1cc(CNS(=O)(=O)c2ccc3c(c2)C(C)(C)C(=O)N3)cc(OCC)c1OCC | -12.3%
50 | CC(NC(=O)Cn1ccc2cc(S(=O)(=O)N3CCCCCC3)ccc21)c1ccccc1 (centres undefined) | -2.13%
51 | CCOC(=O)C1CCCN(c2nc3c(S(=O)(=O)c4ccc(CC)cc4)nnn3c3ccc(Cl)cc23)C1 (centres undefined) | 18%
52 | COc1ccc(C)cc1NC(=O)Nc1nnc(N2CCCCC2)s1 | 13%
53 | COc1ccc(Nc2ncnc3sc4c(c23)CCCC4)cc1 | -1.62%
54 | O=C(NCc1ccccc1Cl)c1ccc(CS(=O)(=O)c2ccc(Br)cc2)o1 | -0.282%
55 | CCOC(=O)C1CCN(C(=O)Cn2nc(CC)n3c(cc4sccc43)c2=O)CC1 | 9.45%
56 | Cc1cc(C)c(NC(=O)Cn2c(=O)n(CCC(=O)N3CCc4ccccc4C3)c(=O)c3ccccc32)c(C)c1 | 19%
57 | Clc1ccc(-n2ncc3c(NC4CCCC4)ncnc32)cc1 | 6.2%
58 | Cc1ccc(Cn2c3ccccc3c3cnn(CC(=O)Nc4cc(Cl)ccc4C)c(=O)c32)cc1 | 4.64%
59 | Cc1c(CNC2CCCCC2)c(C(=O)O)c(C)n1Cc1ccc(Cl)cc1 | -4.93%
60 | COc1ccccc1N1CCN(Cc2cn[nH]c2-c2ccc(F)cc2)CC1 | active: 82.2%
61 | Cc1nn2c(=O)cc(COC(=O)c3cccc(NC(=O)COc4ccccc4C)c3)nc2s1 | -3.64%
62 | Cc1ccc(N2C(=O)CCSC23C(=O)N(Cc2ccccc2)c2ccccc23)cc1 (centres undefined) | 3.46%
63 | CCN(CC)C(=O)c1ccc2c(c1)N(Cc1ccc(C(F)(F)F)cc1)C(=O)c1ccccc1S2 | 0.556%
64 | CCC(=O)NCCc1nc2cc(NC(=O)c3cccc(Br)c3)ccc2n1C | 13.4%
65 | Cc1ccc(NC(=O)Nc2nnc(N3CCCC3)s2)cc1C | 22.5%
66 | Cn1c(=O)c(C(=O)O)nn(-c2ccccc2)c1=O | 8.68%
67 | COC(=O)c1ccc(C(=O)OC)c(NC(=O)CN(c2ccccc2)S(=O)(=O)N(C)C)c1 | 2.99%
68 | COc1cccc(CNC(=O)CSC2=Nc3ccccc3N=C(c3ccc(F)cc3)C2)c1 | 11.8%
69 | CCOc1ccccc1CNC(=O)C1CCCN(c2nnc(C)c3c(C)n(-c4ccccc4)nc23)C1 (centres undefined) | -12.7%
70 | Cc1c(C(=O)N2CCC(C)CC2)c(S(=O)(=O)N(Cc2ccccc2)C(C)(C)C)c(C)n1C | 5.2%
71 | CN1CCN(C(=O)C(=O)Nc2c3c(nn2-c2ccc(Cl)cc2)CSC3)CC1 | -1.75%
72 | CCN(C(=O)c1ccc2c(c1)OCO2)C1CCS(=O)(=O)C1 (centres undefined) | active: 38.5%

Row | SMILES | inhibition
73 | N#C/C(=C\C=C\c1ccccc1)C(=O)NCc1ccco1 | active: 36.9%
74 | COc1ccc(OC)c2sc(N3CCN(C(=O)c4ccco4)CC3)nc12 | -5.22%
75 | COc1ccc(/C=C/C(=O)c2ccc(C(=O)/C=C/c3ccc(OC)c(OC)c3)cc2)cc1OC | active: 33.6%
76 | COc1cc(NC(=O)N2CCc3c(sc4c3CCCC4)C2c2ccccc2)cc(OC)c1OC (centres undefined) | 5.66%
77 | CCOc1ccc(CNC(=O)CSc2nnc(C)c3c(C)n(-c4ccc(Cl)cc4)nc23)cc1 | -0.993%
78 | O=C(CN1C(=O)COc2ccc(S(=O)(=O)NC3CCCC3)cc21)NCc1ccc(Cl)cc1 | -3.84%
79 | CCN(CC)CCSc1c(C(C)C)cnc2c1c(=O)n(C)c(=O)n2C | 18.3%
80 | COc1ccc(CNC(=O)CN2C(=O)CC(c3ccc(C)c(C)c3)=Nc3ccccc32)cc1 | 8.3%
81 | Cc1cc(C)c(-c2n[nH]c3c2C(c2ccccc2F)N(Cc2ccco2)C3=O)c(O)c1 (centres undefined) | 18.4%
82 | COc1ccc(-c2cc(C(F)(F)F)nc(SCCC(=O)Nc3ccc(OC)c(OC)c3)n2)cc1 | 14.1%
83 | CCCCc1nnc(SCc2cc(=O)c3cc(F)ccc3[nH]2)n1C | -20.1%
84 | Cc1ccc(NC(=O)c2sc3nc(-c4cccs4)ccc3c2N)cc1F | 5.16%
85 | CC(C)(C)NC(=O)C1CCN(c2nc3ccccc3nc2C(F)(F)F)CC1 | -0.47%
86 | O=C(NCC(c1cccs1)N1CCOCC1)c1ccccc1NS(=O)(=O)c1cc([N+](=O)[O-])ccc1Cl (centres undefined) | active: 33%
87 | Cc1ccc(-n2c(=O)c3sc4ccccc4c3n(C)c2=O)cc1F | 11.4%
88 | Cc1ccc(C)c(NC(=O)c2ccc3c(c2)CCCN3S(C)(=O)=O)c1 | -8.71%
89 | COc1cccc(NC(=O)c2oc3ccccc3c2NC(=O)c2ccc(F)c(F)c2)c1 | 1.06%
90 | CCCCOC(=O)c1ccc(OC(=O)c2cccnc2)cc1 | active: 30.5%
91 | Cc1oc2cc3oc(=O)c(CC(=O)NCc4ccccc4)c(C)c3cc2c1C | 9.63%
92 | Cc1ccc(C(=O)N2CCCCC2)cc1NC(=O)c1nsc2ccccc12 | -0.401%
93 | COc1ccc(S(=O)(=O)N2CCC(N3CCN(Cc4ccc(F)cc4)C(=O)C3=O)CC2)cc1 | 12.9%
94 | CCc1ccc(C(=O)c2cn(CC(=O)Nc3cc(OC)ccc3OC)c3nc(C)ccc3c2=O)cc1 | -0.701%
